Laboratory results from the supplement of paper PMC9334596.
“And” between values parts separate entries of the source, which are not always exact repeats. Identical values can stand only once. Whole data set: some 5,300 compounds, median “PER2::LUC luminescence relative to vehicle control” near 0.96, cut for the highest 2% near 1.3. The list shows a part of the results.

System: mPer2Luc MEF
Test: PER2::LUC luminescence relative to vehicle control (fold of vehicle); higher = higher PER2::LUC reporter signal
Settings: 10 µM
How it was run: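 The reported values are PER2::LUC luminescence as fold of vehicle control in mouse embryonic fibroblasts carrying the mPer2Luc reporter. Cells were seeded at ~3000 per well in 384-well plates in DMEM with 10% FBS at 37 °C and 5% CO2, and compounds were added at 10 μM 48 h later. ONE-Glo luminescence was read 24 h and 30 h after treatment.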

Compound	PER2::LUC luminescence (time after treatment 24 h)	PER2::LUC luminescence (time after treatment 30 h)
OCC1OC(O)CC(O)C1O (stereo not drawn)	1.15	0.973
Nc1nc2c(cnn2CCc2ccccc2)c2nc(-c3ccco3)nn12	0.814	0.977
CCOC(=O)Nc1nc2ccccc2[nH]1	1.08	1.03
C=C/C(C)=C/[C@@]1(C)SC(=O)C(C)=C1O	0.948	1.05
CC(C)(C)c1cc(NC(=O)Nc2ccc(-c3cn4c(n3)sc3cc(OCCN5CCOCC5)ccc34)cc2)no1	0.386	0.496
COc1ccc(-c2oc3cc(OC)c(OC)c(OC)c3c(=O)c2OC)cc1OC	0.719	0.72
O=C(CCBr)N1CCN(C(=O)CCBr)CC1	1.03	0.664
CNC(=O)c1ccc(N2C(=S)N(c3ccc(C#N)c(C(F)(F)F)c3)C(=O)C2(C)C)cc1F	1.11 and 1.09	1.01 and 0.99
CCCCC1C(=O)N(c2ccccc2)N(c2ccc(O)cc2)C1=O (stereo not drawn)	0.817	0.755
N[C@H]1CONC1=O	1.01 and 1.09	0.967 and 1.11
COc1cc(OC)c(NC(=O)Nc2cc(C)on2)cc1Cl	1.02	1.06
COc1cc(OC)c2ccc(=O)oc2c1	0.858	0.875
O[C@H]([C@H](O)[C@@H]1CO1)[C@H]1CO1	1.11	0.895
CCN(CC)C(=O)Nc1ccc(OCC(O)CNC(C)(C)C)c(C(C)=O)c1 (stereo not drawn)	1.19	1.1
Cc1cc(NC(=O)NCCN2CCC(O)(Cc3ccccc3)CC2)c2ccccc2n1	0.918	0.865
Cc1cc(O)c2c(c1O)C(=O)c1c(O)cc(C)c(O)c1C2=O	1	1
COC(=O)C1=CO[C@@H](O[C@@H]2O[C@H](CO)[C@@H](O)[C@H](O)[C@H]2O)[C@H]2[C@@H]1C(=O)C[C@@H]2C	0.968	0.979
COC(=O)C[C@H]1C2(C)CC34OC5(C)O[C@@]6([C@H](OC(C)=O)C(OC(C)=O)[C@]7(C)C(/C(=C(/O)C(C)C)C(=O)O[C@H]7c7ccoc7)[C@@]6(O5)[C@H](OC(C)=O)[C@@]3(O)C2OC(=O)C(C)C)[C@]14C (stereo partly drawn)	0.773	0.768
COc1cc2nc(N3CCN(C(=O)C4COc5ccccc5O4)CC3)nc(N)c2cc1OC (stereo not drawn)	0.798	0.903
CC(=O)Nc1ccc(OC(=O)c2ccccc2O)cc1	0.934	1.02
O=C(O)c1cc(=O)c(O)c2c(O)c(O)c(O)cc2c1	0.975	0.906
NC[C@@](O)(c1ccc(Cl)cc1)c1ccc(-c2cn[nH]c2)cc1	0.147	0.218
O=c1c(O)c(-c2ccc(O)cc2)oc2cc(O)cc(O)c12	1.01	0.989

Compound	PER2::LUC luminescence (time after treatment 24 h)	PER2::LUC luminescence (time after treatment 30 h)
O=c1nc2ccccc2c2n1CC(CN1CCN(c3ccccc3)CC1)N2 (stereo not drawn)	1.04	1.03
O=P(O)(O)C(O)(Cn1ccnc1)P(=O)(O)O	0.964	0.93
O=C(c1cc(O)c(O)c([N+](=O)[O-])c1)c1ccccc1F	0.942	1.01
CCOC(=O)c1ccc(N(C)c2csc(-c3ccccc3)n2)cc1	1.19	1.58
CCN(CC)C(=O)C1(c2ccccc2)CC1CN (stereo not drawn)	1 and 0.523	0.945 and 0.937
Cc1cc(C(C)(C)C)cc(C)c1CC1=NCCN1	0.495	0.853
CC1(C)CC(NC(=O)C(=O)Nc2ccc(Cl)cc2)CC(C)(C)N1	0.958	1
COc1cc(NC(=O)c2ccccn2)ccc1Cl	1.13	1.38
CCN(CCCCOC(=O)c1ccc(OC)c(OC)c1)C(C)Cc1ccc(OC)cc1 (stereo not drawn)	0.846	0.725
O=c1[nH]ccc2c(O)cccc12	1.22	0.806
CC(C)(CO)[C@@H](O)C(=O)NCCC(=O)O	1.09	1.04
C[C@@H]1C[C@H]2[C@@H]3CCC4=CC(=O)C=C[C@]4(C)[C@@]3(F)[C@@H](O)C[C@]2(C)[C@H]1C(=O)CO	0.732	0.866
CCN(CC)CCOCCOC(=O)C1(c2ccccc2)CCCC1	0.976	0.912
CC#CCn1c(N2CCC[C@@H](N)C2)nc2c1c(=O)n(Cc1nc(C)c3ccccc3n1)c(=O)n2C	0.899	0.982
COc1ccc2c3n(c(=NC(=O)c4cccnc4)nc2c1OC)CCN3	0.418	0.369
O=C(O)c1cccc(CN2C(=O)/C(=C(\c3ccccc3)c3ccc(Cl)cc3)c3ccccc32)c1	1.09	1.03
CCCc1nc2c(C)cc(-c3nc4ccccc4n3C)cc2n1Cc1ccc(-c2ccccc2C(=O)O)cc1	0.693	0.744
O=C(O)Cc1ccc(O)c(O)c1	0.817	1.03
COCCCOc1cc(C[C@@H](C[C@H](N)[C@@H](O)C[C@H](C(=O)NCC(C)(C)C(N)=O)C(C)C)C(C)C)ccc1OC	0.442	0.84
CNCCCCOc1ccccc1Cc1ccccc1	0.867	0.73
CCCCOC(=O)c1ccc(O)cc1	1.63 and 1.43	1.61 and 1.57
C#C[C@]1(OC(C)=O)CC[C@H]2[C@@H]3CCC4=CC(=O)CC[C@@H]4[C@H]3CC[C@@]21C	0.907	0.944
COc1ccc(-c2cc(=O)c3c(O)c(OC)c(OC)c(OC)c3o2)cc1OC	0.819	0.797

Compound	PER2::LUC luminescence (time after treatment 24 h)	PER2::LUC luminescence (time after treatment 30 h)
Cc1ccc(C(=O)N(CCCN)[C@@H](c2nc3cc(Cl)ccc3c(=O)n2Cc2ccccc2)C(C)C)cc1	0.335 and 0.314	0.364 and 0.282
N=C(N)N1CCc2ccccc2C1	1.08	0.988
CC1=CC(=O)c2ccccc2C1=O	0.918	1.09
CC(=O)/N=c1/sc(S(N)(=O)=O)nn1C	0.914	1.21
COc1cc2ncnc(Nc3ccc(F)c(Cl)c3)c2cc1NC(=O)/C=C/CN1CCCCC1	0.308	0.05
N=C(N)SCCN	1.05	1.05
CC(=O)Oc1cc(C)c(OC(C)=O)c2ccccc12	1.01	1.02
O=C(O)/C=C/C=C/c1ccccc1	1.05	1.03
CCCCC1C(=O)N(c2ccccc2)N(c2ccccc2)C1=O	1.08	0.813
CNCC[C@@H](Oc1ccccc1C)c1ccccc1	0.978 and 0.681	1.05 and 0.979
c1ccc(CN2CCC3(CCCc4ccccc43)CC2)cc1	1.05	0.855
CC(C)(O)CNc1nc(Nc2ccnc(C(F)(F)F)c2)nc(-c2cccc(C(F)(F)F)n2)n1	0.819	0.875
CSc1nc(N)c2ncn([C@@H]3O[C@H](COP(=O)(O)OP(=O)(O)O)[C@H](O)C3O)c2n1 (stereo partly drawn)	0.758	1.22
Cc1ccc(C(=O)C(C)CN2CCCCC2)cc1 (stereo not drawn)	0.866	0.885
Nc1c(S(=O)(=O)O)cc(Nc2ccc(Nc3nc(Cl)nc(Nc4cccc(S(=O)(=O)O)c4)n3)c(S(=O)(=O)O)c2)c2c1C(=O)c1ccccc1C2=O	1.15	0.99
NS(=O)(=O)C#Cc1ccccc1	1.18	0.903
O=C(CCCCC(=O)Nc1c(I)cc(I)c(C(=O)O)c1I)Nc1c(I)cc(I)c(C(=O)O)c1I	0.874	0.999
OC[C@H]1O[C@@H](O[C@@H]2OC=C[C@H]3[C@H](O)[C@@H]4O[C@]4(CO)[C@@H]23)[C@H](O)[C@@H](O)[C@@H]1O	1.04	1
O=C(O)Cc1cc(I)c(Oc2ccc(O)c(I)c2)c(I)c1	0.788	1.04
CC(C)=CCC/C(C)=C\CO	0.977	0.931
COCCCOc1ccnc(C[S+]([O-])c2nc3ccccc3[nH]2)c1C (stereo not drawn)	1.15 and 1.39 and 1.44	1.12 and 1.68 and 1.47
CCN(CC)CCCN(c1ccccc1)C1Cc2ccccc2C1	0.837	0.839
CCC(CC)(NC(=O)C(C)C)C(=O)N[C@@H](CCCN=C(N)N)C(=O)NC1(C(=O)NC(c2ccc(F)cc2)c2ccc(F)cc2)CCCC1	1.04	0.996

Compound	PER2::LUC luminescence (time after treatment 24 h)	PER2::LUC luminescence (time after treatment 30 h)
COc1cc(C(C)=O)cc(OC)c1O	0.965	0.931
COc1nc(C)cnc1NS(=O)(=O)c1cccnc1-c1ccc(-c2nnco2)cc1	1.11	0.984
Cc1oc(=O)oc1CN1CCN(c2cc3c(cc2F)c(=O)c(C(=O)O)c2n3C(C)S2)CC1 (stereo not drawn)	0.993	0.997
C/C(O)=C(\C#N)C(=O)Nc1ccc(C(F)(F)F)cc1	1.32 and 1.08	1.56 and 1.07
C=COCC(F)(F)F	0.954	0.925
Nc1nccc2c1ncn2C1C=C(CO)C(O)C1O (stereo not drawn)	1.05	1.08
Cc1nc(N(C)C(=O)Cc2ccc(-c3ccccn3)cc2)sc1S(N)(=O)=O	1.05 and 1	0.949 and 0.953
CC(=O)OCC(=O)[C@@]12OC3(CCCC3)O[C@@H]1C[C@H]1[C@@H]3CCC4=CC(=O)C=C[C@]4(C)[C@@]3(F)[C@@H](O)C[C@@]12C	0.828	1.13
COc1cc(O)c(C(=O)/C=C/c2ccc(O)c(OC)c2)c(OC)c1	0.871	0.855
N=C(N/N=C/c1ccc(Cl)cc1)N/N=C/c1ccc(Cl)cc1	0.996	0.988
Cn1cc(/C=C/C(=O)c2cccc(F)c2)cc1/C=C/C(=O)NO	1.15	1.01
N[C@@H](CC(=O)N1CCn2c(nnc2C(F)(F)F)C1)Cc1cc(F)c(F)cc1F	1.02 and 0.955	1.01 and 0.973 and 0.925
COc1cc2c(cc1OC)Cc1cc(OC)c(OC)cc1Cc1cc(OC)c(OC)cc1C2	0.937	0.923
NC(=NC12CC3CC(CC(C3)C1)C2)Nc1ccc(I)cc1	1.06	0.918
C[C@@H]1O[C@@H](O[C@H]2[C@H](Oc3cc(O)c4c(c3)O[C@H](c3ccc(O)cc3)CC4=O)O[C@H](CO)[C@@H](O)[C@@H]2O)[C@H](O)[C@H](O)[C@H]1O	0.964	0.906
O=C(Nc1ccccc1)OCC(CN1CCCCC1)OC(=O)Nc1ccccc1 (stereo not drawn)	0.869	0.908
N=C(N)c1ccc(N=NNc2ccc(C(=N)N)cc2)cc1	0.881	0.873
COc1c(O)cc(O)cc1O	1.05	0.995
CCN(CC)CC1CCCCN1CC(=O)N1c2ccccc2C(=O)Nc2cccnc21 (stereo not drawn)	0.951 and 0.984	1.01 and 0.918
CC(C)(C)OC(=O)N[C@H]1CCCCC/C=C\[C@@H]2C[C@@]2(C(=O)NS(=O)(=O)C2CC2)NC(=O)[C@@H]2C[C@@H](OC(=O)N3Cc4cccc(F)c4C3)CN2C1=O	1.14	1.17
